This assay concerns the target T1, M1-linked di-ubiquitin (UniProt P0CG47 fragment; P0CG47 fragment).
T1 construct: ubiquitin, first unit of the linear (M1-linked, head to tail) di-ubiquitin; ubiquitin, second unit of the linear (M1-linked, head to tail) di-ubiquitin; the parent is probably pGEX-M1-linked tetra-ubiquitin (surmised); also called 2xM1-ub; di-M1-ubiquitin; source: GST-di-ubiquitin construct made with the Q5 mutagenesis kit; expression and purification not described for this construct
The assay is described as follows: ITC; OPTN or its variants in the cell, di-M1-ubiquitin in the syringe; 25 °C; 20 mM Tris-HCl pH 7.4, 150 mM NaCl, 0.5 mM TCEP; MicroCal PEAQ-ITC. As to conditions: both partners purified. (In general: In ITC the heat of successive injections is recorded.)

B1: Optineurin, wildtype (natural protein)
chain: not shown
notes: Optineurin, human, 577 amino acids; The molecule of the ITC; also called OPTN; WT OPTN; not shown: GST, N-terminal, cleaved
Broadly, the Kd is a measure of binding affinity in units of concentration. Low values mean higher affinity, high ones lower affinity. Regarding B1, binding was put at a Kd of 110 nM.

Values taken from article PMC13042857, “TBK1 Induces the Formation of Optineurin Filaments That Condensate with Polyubiquitin and LC3 for Cargo Sequestration” (Advanced Science, 2025).
